Source: PubChem BioAssay AID1030 (National Center for Advancing Translational Sciences (NCATS), 2008)
Out of some 220,000 compounds screened, about 16,000 (7.3%) were called active. Inconclusive means that the source gave no clear call. Such entries were picked first, then a sample of the others. The call rests on the fitted dose curve; in most records, active means well fitted inhibition curve with a large enough effect (not every such curve was filed as active); inconclusive means small, poorly fitted or top-dose-only effect, or another doubt; inactive means no such curve, though single readings can be large or run the other way. Potencies of inconclusive entries are left out as doubtful fits.
Potency means the concentration at half of the fitted maximal effect; tags describe the fitted curve by direction and shape.
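Wherever activity, negative = inhibition is given: plate controls were no enzyme wells and a reference inhibitor.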

What follows are molecules tested against Aldehyde dehydrogenase 1A1 (Homo sapiens) (UniProt P00352) (assay: qHTS Assay for Inhibitors of Aldehyde Dehydrogenase 1 (ALDH1A1)). Conditions: Purified ALDH1A1, NADH fluorescence, propionaldehyde substrate; series mostly up to 75.3 µM; activity, negative = inhibition: at the top concentration.
Chain of UniProt P00352 (P00352 whole entry, looked up): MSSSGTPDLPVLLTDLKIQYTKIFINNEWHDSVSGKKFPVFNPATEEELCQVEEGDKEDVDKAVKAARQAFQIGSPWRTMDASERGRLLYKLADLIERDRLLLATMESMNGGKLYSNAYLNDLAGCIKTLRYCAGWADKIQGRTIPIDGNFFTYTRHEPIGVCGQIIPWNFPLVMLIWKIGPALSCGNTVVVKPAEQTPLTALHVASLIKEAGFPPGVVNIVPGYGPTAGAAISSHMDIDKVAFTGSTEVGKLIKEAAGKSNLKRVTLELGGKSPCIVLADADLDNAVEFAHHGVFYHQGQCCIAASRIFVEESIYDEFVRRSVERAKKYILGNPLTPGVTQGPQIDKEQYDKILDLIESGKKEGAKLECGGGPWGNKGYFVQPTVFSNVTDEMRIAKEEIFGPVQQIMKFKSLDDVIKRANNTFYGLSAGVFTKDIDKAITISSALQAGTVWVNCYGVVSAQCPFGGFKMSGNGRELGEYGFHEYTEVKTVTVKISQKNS
With `Cc1cc(C)c2c(N)c3ccccc3nc2n1` the Potency was inconclusive [inhibitor, single point].
In the case of `CC(=O)c1ccc(N2CCN(C(=O)Cn3c(=S)[nH]c4ncccc4c3=O)CC2)cc1`, the Potency was inconclusive [inhibitor, partial curve, poor fit].
For `Cc1nc2ccccc2n1C1CCN(C(=O)Nc2ccccc2)CC1`, the “activity, negative = inhibition” value was inactive: 5.97%.
In the case of `CN(C)c1ncc2nc(-c3cc(F)cc(F)c3)c(=O)n(C)c2n1`, the Potency was inconclusive [inhibitor, single point].
In the case of `O=[N+]([O-])c1ccc(-c2csc(Nc3ccccc3)[n+]2Cc2ccccc2)cc1`, the Potency was active: 31.6 µM.
With `O=C1CCCC(=O)C1C(=O)C1CCN(S(=O)(=O)c2ccccc2)CC1` the “activity, negative = inhibition” value was inactive: 7.64%.
For `O=C(NNS(=O)(=O)c1ccc(Cl)cc1)c1sccc1-n1cccc1`, the Potency was inconclusive [inhibitor, single point].
`COc1cc(/C=N/NC(=S)Nc2cccc(C(=O)O)c2)ccc1O` was tested, and the Potency was inconclusive [inhibitor, single point].
In the case of `O=C(Nc1ccc2c(c1)CCC2)c1ccc(F)c(S(=O)(=O)N2CCOCC2)c1`, the Potency was inconclusive [inhibitor, partial curve].
`CCCCOc1ccc(S(=O)(=O)n2c(C)nc3ccccc32)cc1` was tested, and the “activity, negative = inhibition” value was inactive: 20.1%.
With `Cn1cccc1Cc1nnc(SCC(=O)NCc2ccc(F)cc2)n1-c1ccc(F)cc1` the Potency was inconclusive [inhibitor, single point].
For `c1cc(NC2CC2)nc(-c2ccoc2)n1`, the Potency was inconclusive [inhibitor, single point].
In the case of `O=C(c1ccco1)N1CCN(C(=O)C(Sc2ccccc2)c2ccccc2)CC1` (stereo unspecified), the Potency was active: 14.1 µM.
In the case of `NC(=O)[C@H](Cc1cc2ccccc2s1)NC(=O)[C@@H]1CC2(CC(c3cccc(NC(=O)[C@@H]4CCC(=O)N4)c3)=NO2)CN1C(=O)/C=C/Sc1ccccc1` (stereo partly specified), the Potency was inconclusive [inhibitor, single point].
For `CCCN1C(=O)c2ccc(C(=O)NC3CCCCC3)cc2C1=O`, the Potency was inconclusive [inhibitor, full curve].
With `CNC(=O)c1ccccc1NC(=O)c1c(O)c2c([nH]c1=O)CCCC2` the Potency was inconclusive [inhibitor, single point].
In the case of `CSc1cc(-c2ccc(Cl)cc2)n(Cc2ccccc2)c(=O)c1C#N`, the Potency was inconclusive [inhibitor, single point].
`O=c1c(CCc2ccccc2)nc2cncnc2n1-c1ccccc1` was tested, and the Potency was inconclusive [inhibitor, single point].
In the case of `O=C1/C(=C/c2ccccc2)SC(=S)N1N1C(=O)C2CC2C1=O` (stereo unspecified), the “activity, negative = inhibition” value was inactive: 0.506%.
`O=C(Nc1nc2ccc(SC(F)F)cc2s1)c1ccc(NS(=O)(=O)c2ccc(F)c(F)c2)cc1` was tested, and the Potency was inconclusive [inhibitor, partial curve].
In the case of `Cc1ccc(-n2cc(-c3ccc([N+](=O)[O-])cc3)[nH]c2=S)c(C)c1`, the Potency was inconclusive [inhibitor, single point].
In the case of `CCCCn1nnnc1SCC(=O)Nc1cccc(C)n1`, the Potency was inconclusive [inhibitor, single point].
With `CN1\C(=C/C=C/C=C/C=[N+](C)C)C(C)(C)c2ccccc21` the Potency was active: 25.1 µM.
In the case of `CCOCCCNS(=O)(=O)c1ccc(NC(=O)C2CC(=O)N(c3ccc(C)cc3)C2)cc1` (stereo unspecified), the Potency was inconclusive [inhibitor, partial curve].
For `Cc1cc(-c2ccccc2)c2nncn2n1`, the Potency was inconclusive [inhibitor, partial curve].
For `C(=N\Nc1ccc(-n2ccnc2)nn1)/c1ccccc1`, the “activity, negative = inhibition” value was inactive: 14.6%.
In the case of `COc1cccc2oc(-c3ccc(O)cc3)cc(=O)c12`, the Potency was inconclusive [inhibitor, single point].
`CC(=O)c1ccc(NC(=O)CN2CCN(c3ncccn3)CC2)cc1` was tested, and the Potency was active: 8.91 µM.
`O=C(COc1cccc2c1CCN(Cc1ccc(Br)cc1)C2=O)NCc1ccco1` was tested, and the “activity, negative = inhibition” value was inactive: -3.38%.
In the case of `COc1ccc(CC(=O)Nc2cc(=O)n(C)c(=O)n2C)cc1`, the Potency was inconclusive [inhibitor, single point].
In the case of `CCOC(=O)C1CCN(c2ncnc3c2cnn3-c2ccc(Cl)cc2)CC1`, the Potency was inconclusive [inhibitor, partial curve].
For `O=c1c2cn[nH]c2nc(SCc2c(F)cccc2F)n1-c1ccc(Cl)cc1`, the “activity, negative = inhibition” value was inactive: -8.92%.
`COc1ccc(CN(C)C2CCCCC2)c(C)c1C` was tested, and the Potency was inconclusive [inhibitor, single point].
With `COCCCNC(=S)N1CCCN(c2nc3cc(C)ccc3cc2C#N)CC1` the Potency was inconclusive [inhibitor, single point].
In the case of `O=c1c2cc(N3CCOCC3)ccc2[nH]c(=S)n1Cc1cccc(Cl)c1`, the Potency was inconclusive [inhibitor, partial curve].
`N#Cc1cc2c(nc1SCc1cccnc1)CCC2` was tested, and the Potency was inconclusive [inhibitor, partial curve].
With `CCOc1ccc(-n2c(CCc3ccccc3)n[nH]c2=S)cc1` the “activity, negative = inhibition” value was inactive: 0.362%.
With `O=C(CSc1ccc(C(F)(F)F)cc1[N+](=O)[O-])Nc1ccc2ccccc2c1` the Potency was active: 5.62 µM.
For `Cn1c(=O)c2c(-c3ccccc3)n(Cc3ccccn3)cc2n(C)c1=O`, the Potency was inconclusive [inhibitor, single point].
In the case of `CCc1ccccc1N1CSC2=C(C#N)C(c3cc(OC)c(OC)cc3OC)CC(=O)N2C1` (stereo unspecified), the Potency was inconclusive [inhibitor, full curve].
In the case of `Cc1cccc(S(=O)(=O)c2c(N)n(Cc3ccco3)c3nc4ccccc4nc23)c1`, the Potency was inconclusive [inhibitor, partial curve].
In the case of `O=S(=O)(NN1CCOCC1)c1ccc(Cl)s1`, the Potency was inconclusive [inhibitor, single point].
In the case of `Cc1ccc(N(CC(N)=O)C2SC(=O)N(Cc3ccccc3)C2=O)cc1` (stereo unspecified), the Potency was inconclusive [inhibitor, single point].
In the case of `CCCCNC(=O)/C(C#N)=C/c1ccc2c(c1)OCCO2`, the Potency was active: 6.31 µM.
With `Cc1nnsc1NC(=O)OCC(C)C` the Potency was inconclusive [inhibitor, single point].
With `C=C(C)C1CCC(C)=C1COC(=O)Nc1ccccc1` (stereo unspecified) the Potency was inconclusive [inhibitor, single point].
In the case of `Cc1cccc(CSc2ccc(-c3ccco3)nn2)c1`, the Potency was inconclusive [inhibitor, single point].
In the case of `COc1ccc(-n2c(-c3ccc(Br)cc3)c[n+]3c2CCc2ccccc2-3)cc1`, the “activity, negative = inhibition” value was inactive: 1.83%.
For `CC(C)(C)NNC(=S)Nc1cccc(F)c1`, the Potency was inconclusive [inhibitor, single point].
With `CC1=CC(C)(C)N(C(=O)CSc2nnc(N)s2)c2ccccc21` the Potency was inconclusive [inhibitor, partial curve].
For `Cc1cc(=O)[nH]c2c(N=Nc3ccc(O)cc3)c(N)nn12`, the Potency was active: 17.8 µM.
`O=C(/C=C/c1ccc(Cl)cc1Cl)c1cccnc1` was tested, and the Potency was active: 10 µM.
`O=C(Nc1ccc(N2CCCC2)cc1)C(Cl)c1ccccc1` (stereo unspecified) was tested, and the Potency was inconclusive [inhibitor, single point].
`C=CCNCCOCCOc1ccc(Cl)cc1C(C)(C)C` was tested, and the Potency was inconclusive [inhibitor, single point].
In the case of `CCc1c(C)nc2[nH]nc(-c3ccccc3)n2c1=O`, the Potency was inconclusive [inhibitor, single point].
With `COc1ccc(NC(C)c2ccccc2)cc1` (stereo unspecified) the Potency was inconclusive [inhibitor, partial curve].
In the case of `COc1ccc2cc(/C=N/NC(=O)c3ccc(CN(c4cccc(Cl)c4Cl)S(C)(=O)=O)cc3)c(Cl)nc2c1`, the Potency was inconclusive [inhibitor, partial curve].
With `O=C(CCS(=O)(=O)c1ccccc1Cl)Nc1ccc(S(=O)(=O)Nc2ncccn2)cc1` the “activity, negative = inhibition” value was inactive: 9.04%.
For `NC(=O)c1cccc(N=Cc2cc(Cl)cc(Cl)c2O)c1`, the “activity, negative = inhibition” value was inactive: 17.8%.
`O=C(Cn1cnc2ccccc2c1=O)NCCC(=O)N1CCN(Cc2ccccc2)CC1` was tested, and the Potency was inconclusive [inhibitor, single point].
`O=C(NN1CCOCC1)c1cc(S(=O)(=O)Nc2cccc(C(F)(F)F)c2)ccc1Cl` was tested, and the “activity, negative = inhibition” value was inactive: 4.86%.
`CCOc1ccc(N2CC(O)=C(c3nc4ccccc4c(=O)[nH]3)C2=N)cc1` was tested, and the Potency was inconclusive [inhibitor, partial curve].
For `COc1cccc(CNC(=O)CCCCCn2c(=S)[nH]c3ccc(N4CCOCC4)cc3c2=O)c1`, the “activity, negative = inhibition” value was inactive: -10.7%.
With `COc1cc(/C=N/NC(=O)C(=O)/C=C2\NC3(CCCC3)Cc3ccccc32)ccc1O` the “activity, negative = inhibition” value was inactive: -6.34%.
For `Cc1sc(NC(=O)CSc2nnc(COc3ccccc3)n2C)c(C#N)c1C`, the Potency was inconclusive [inhibitor, single point].
`O=C(NC1CCCCC1)C(c1ccc2ncccc2c1)N(Cc1ccc(F)cc1)C(=O)c1cccs1` (stereo unspecified) was tested, and the Potency was inconclusive [inhibitor, partial curve].
In the case of `CC1=NN(c2ccc(C(F)(F)F)cn2)C(=O)C1`, the Potency was active: 22.4 µM.
For `COCC(C)n1c(C)cc(C(=O)CN2C(=O)NC(Cc3c[nH]c4ccccc34)C2=O)c1C` (stereo unspecified), the “activity, negative = inhibition” value was inactive: 2.43%.
`CCOc1ccccc1-c1ccc(C(=O)NCc2ccccc2)o1` was tested, and the Potency was inconclusive [inhibitor, partial curve].
With `COc1cc2c(cc1OC)CN(CC(=O)Nc1ccc3c(c1)OCO3)CC2` the “activity, negative = inhibition” value was inactive: 0.102%.
`COc1ccc(C(=O)C(OC(=O)CNC(=O)c2ccco2)c2ccccc2)cc1` (stereo unspecified) was tested, and the Potency was active: 20 µM.
